# Measurements from the supplement of paper PMC3334620.
# The full ranking holds about 33,000 sequences; the median of “E-score (-0.5 to 0.5)” is about -0.036, and the highest 2% start at about 0.37. This is one part of the list.
# Target: T1, Yer064c (UniProt P40041)
# T1 sequence: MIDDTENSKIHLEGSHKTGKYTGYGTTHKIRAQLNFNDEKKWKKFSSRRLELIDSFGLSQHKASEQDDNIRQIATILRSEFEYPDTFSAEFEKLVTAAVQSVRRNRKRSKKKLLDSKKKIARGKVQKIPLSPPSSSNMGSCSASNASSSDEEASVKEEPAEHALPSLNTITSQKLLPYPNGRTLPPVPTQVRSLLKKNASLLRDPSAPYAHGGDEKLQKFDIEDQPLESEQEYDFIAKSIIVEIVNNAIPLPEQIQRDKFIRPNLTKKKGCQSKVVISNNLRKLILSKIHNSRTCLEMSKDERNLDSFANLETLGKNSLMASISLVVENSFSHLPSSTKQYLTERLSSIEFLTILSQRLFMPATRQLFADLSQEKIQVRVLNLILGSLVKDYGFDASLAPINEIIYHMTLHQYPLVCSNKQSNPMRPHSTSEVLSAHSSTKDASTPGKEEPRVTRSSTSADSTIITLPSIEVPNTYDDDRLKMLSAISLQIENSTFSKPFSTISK
# Test: PBM E-score (8-mer binding enrichment) (E-score (-0.5 to 0.5)); higher = stronger / more preferred TF binding; most listed sequences are background and not binding sites
# Conditions: protein concentration: 200 nM; construct: GST-full length
# Outline: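 Masliner-normalised scans of fluorescent anti-GST signal were the basis for scoring. That signal came from GST-tagged yeast transcription factors applied at about 100-200 nM to double-stranded universal all-10-mer Agilent arrays on fresh or once-stripped slides. Each ungapped eight-base word, pooled with its reverse complement, received an E-score from the Universal PBM Analysis Suite.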
row,Sequence,PBM E-score
1,GAATATCC,-0.213
2,CGTTAGAA,0.0197
3,ACTTCCTA,0.158
4,AGCGCGTC,-0.174
5,ACACTAAA,0.0649
6,GCAGCACC,-0.194
7,CTGGGTCC,-0.268
8,CCATGTCC,-0.153
9,CGAACGTA,-0.0351
10,GGCCGCAA,-0.135
11,AATGTCGT,-0.0618
12,ACGGACCC,-0.253
13,AGAAAACT,-0.0404
14,GCGAACCC,-0.152
15,AGAGACAC,0.135
16,ACGTAAAT,-0.124
17,AGCCCGGA,-0.142
18,CATATTGA,0.24
19,CAAACGCA,-0.0486
20,CATTGGAG,0.0286
21,CGGTGCTA,-0.178
22,CATCTAAC,0.083
23,CAGTGGGC,-0.106
24,CAATGGCC,-0.281
25,CCCCTGCA,-0.127

row,Sequence,PBM E-score
1,GACATCAC,-0.0583
2,GTAACTAA,0.115
3,CGGGTGCA,-0.159
4,ACAAGAGA,-0.0733
5,GACTTGCC,0.158
6,AATGACAG,-0.045
7,ATACATTC,-0.0684
8,CTAGGCAA,-0.0898
9,CATCACGA,0.132
10,CTCTGTCC,-0.14
11,AACGTGGG,-0.189
12,CAATGTTC,0.0297
13,CCTCTCGA,-0.221
14,AGCATCCG,-0.201
15,ATGCTCTG,-0.221
16,ACGGCGCC,-0.206
17,GGATTGTA,-0.213
18,ACCTACGT,-0.0957
19,CAACCCTG,0.0094
20,CTACGAAG,0.00221
21,GGGACTTA,-0.0167
22,GCGCATGA,0.0941
23,CATGCACA,0.107
24,ATCGCACA,0.147
25,CGTACTCC,0.099

row,Sequence,PBM E-score
1,CCTATTTC,-0.224
2,ACATTAAA,-0.0887
3,CCTGTATA,-0.184
4,ATTTGGAG,-0.00763
5,ACCCTATC,0.0364
6,TCTGAGCA,-0.00297
7,GAGACGTA,0.0503
8,AAGCTTAG,0.0387
9,CGACAGGA,-0.111
10,AGTCATAT,0.484
11,ACCGATCG,-0.0467
12,GTCAGCCA,0.118
13,TACCTCCA,-0.065
14,AGTGCTAA,0.154
15,ACACTACC,-0.0729
16,GCGCGGTA,-0.107
17,AGGGATTG,-0.0992
18,CAACAAGC,0.115
19,ACCGAAAA,0.24
20,ATATAGGC,-0.0646
21,GGGTGCTA,-0.0714
22,GGGGCTAA,-0.145
23,AACCTTAA,0.02
24,GCAATTGC,-0.123
25,AAAGTCTC,-0.0362

row,Sequence,PBM E-score
1,TGATTTAA,0.407
2,CCACGTGA,-0.0389
3,ACAGCGAG,0.0422
4,GTGGGCAA,-0.133
5,AAGTCGCC,0.222
6,CAGGCAAA,-0.227
7,ATCGGAAC,0.164
8,ACCCCACG,-0.309
9,CCTGGACC,-0.157
10,GCGCTAAC,-0.217
11,CCAGAGCG,-0.0986
12,ACGTCTAC,0.0284
13,AAATCCCC,-0.314
14,ATGCTCGC,-0.124
15,AGCCTGAA,0.0248
16,CTAACTAA,0.225
17,AACTTGGC,-0.112
18,ACCATTGG,0.0904
19,ACTGACGG,0.00341
20,ACTCCCTC,0.095
21,GACGCATA,-0.182
22,ACACACTC,0.125
23,AACGCCTA,-0.228
24,CATGAATA,0.178
25,AAGTGTGG,-0.0229

row,Sequence,PBM E-score
1,CATCGACA,-0.0949
2,ATCACACA,0.191
3,CGGGAACG,-0.246
4,ACCCCGAG,-0.055
5,GGAGCGGA,-0.193
6,AGGCCTGC,-0.27
7,AGTCCTCG,0.334
8,ATAGTAAA,0.148
9,TGATCAAA,0.169
10,CAACCCGG,-0.105
11,GAAATAGC,-0.0517
12,CTGCGGCA,-0.106
13,CGTTACCC,-0.184
14,CCAGTCAC,0.313
15,AACCGCCA,0.158
16,GTTTCAGA,-0.00444
17,GACGTACA,0.027
18,AGAGAGTC,0.409
19,AGCGAGCC,-0.0928
20,ACCCAAGA,-0.0549
21,CCGTCGGC,-0.207
22,AAAATTGC,-0.223
23,GTGGGAGA,-0.113
24,CGACCGAG,-0.0331
25,CAACTTGC,-0.189

row,Sequence,PBM E-score
1,CAATGGTG,-0.177
2,ATGGTTCC,0.259
3,CATCGAGA,-0.111
4,CGCGCACA,-0.147
5,AAAATGTC,-0.0682
6,AGCTCTGG,-0.0975
7,ATGCTAAC,-0.0148
8,ACTCCGAC,0.306
9,AGACCGCT,-0.172
10,CCACCTAA,-0.0468
11,ACGGGTGG,-0.122
12,CATAACAA,0.108
13,CTCAGAAG,0.0956
14,AACGGAGC,-0.277
15,CCCCGTAC,-0.256
16,GGCTGCCA,-0.218
17,AAGTCACT,0.399
18,CACACGTC,-0.166
19,CAGATGTC,-0.101
20,ACTCCCGG,-0.0371
21,CCTCCCTA,-0.208
22,CTCAGCTC,0.0515
23,GATGGAGA,-0.117
24,ATGACAGC,0.0213
25,GAGGAAGC,-0.263

row,Sequence,PBM E-score
1,CTTTAAGC,0.211
2,CTCGATCC,-0.0538
3,ACGGGGCC,-0.327
4,CTCTACCC,-0.0358
5,GGGAACAC,-0.0597
6,AAGATCTC,0.0394
7,AATACTAG,-0.00028
8,CGACCAAC,-0.186
9,AGACACCG,0.11
10,TCATCAGA,0.259
11,ACCCATGC,0.155
12,GGTGGTAC,-0.292
13,AACCAACG,-0.128
14,TATTTCGA,0.137
15,GGTGAGTA,0.333
16,AGCAGCGC,-0.221
17,AGTAGCAA,-0.0676
18,CAAAACCC,-0.114
19,CACTCATC,0.258
20,CCAGCGTC,-0.408
21,AGACCCAA,-0.134
22,CGCGCCAC,-0.14
